Assay results: the supplement of paper PMC3334620
Over roughly 33,000 sequences, “E-score (-0.5 to 0.5)” has its median near -0.012; the highest 2% begin near 0.27. Some of the results follow.

Biological target: T1, Vhr1 (UniProt P40522)
T1 sequence: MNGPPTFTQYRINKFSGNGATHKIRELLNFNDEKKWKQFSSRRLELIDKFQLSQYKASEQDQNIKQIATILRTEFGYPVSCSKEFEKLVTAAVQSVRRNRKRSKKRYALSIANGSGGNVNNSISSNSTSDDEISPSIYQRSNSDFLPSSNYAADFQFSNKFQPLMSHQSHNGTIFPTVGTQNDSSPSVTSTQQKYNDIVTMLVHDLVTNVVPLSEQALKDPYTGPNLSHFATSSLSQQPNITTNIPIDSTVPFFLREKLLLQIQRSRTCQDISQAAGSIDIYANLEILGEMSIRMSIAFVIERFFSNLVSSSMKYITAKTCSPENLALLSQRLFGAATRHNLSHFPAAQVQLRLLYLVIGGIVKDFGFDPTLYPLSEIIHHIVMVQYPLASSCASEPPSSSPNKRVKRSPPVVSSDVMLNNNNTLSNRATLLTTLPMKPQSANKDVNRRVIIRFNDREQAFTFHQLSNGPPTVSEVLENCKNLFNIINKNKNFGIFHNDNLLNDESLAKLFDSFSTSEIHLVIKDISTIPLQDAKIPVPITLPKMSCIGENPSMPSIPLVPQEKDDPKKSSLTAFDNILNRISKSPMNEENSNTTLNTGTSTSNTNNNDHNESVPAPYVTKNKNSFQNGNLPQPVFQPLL
Assay: PBM E-score (8-mer binding enrichment) (E-score (-0.5 to 0.5)); higher = stronger / more preferred TF binding; most listed sequences are background and not binding sites
Conditions: protein concentration: 200 nM; construct: GST-full length
Outline: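 Each ungapped eight-base word and its reverse complement, pooled, received an E-score from the Universal PBM Analysis Suite. Underlying scans, normalised with masliner, recorded fluorescent anti-GST bound to GST-tagged yeast transcription factors. These were applied at about 100-200 nM to universal all-10-mer Agilent arrays double-stranded by primer extension.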

Sequence	PBM E-score
GTCGCTGA	0.138
GACCACAA	0.041
CATCAAGG	-0.181
GTACTAAC	0.102
ACATACAG	0.0715
ATTATAAG	-0.109
GCTTAGGA	-0.0935
CCATTACA	0.236
CGGAGCCA	0.196
GAGGGCAC	-0.205
ACCCTTTA	-0.0907
ACGGCAAA	-0.0731
AGCCCCCC	-0.247
CAATATCG	0.0708
CGCAGAGC	-0.018
CTAACTGC	-0.178
AACCCCCC	-0.207
ATGCCCCC	-0.16
GCATCTTA	-0.0496
CCTATGCG	-0.0552
AACCGTCG	-0.0215
ATCCCGCA	-0.0136
CATCGTGC	-0.0818
AAAAGCGA	0.0171
GTCCTTGA	-0.135

Sequence	PBM E-score
AAATTATA	0.13
CATCTGGC	0.225
CCGGAAGG	-0.0756
AACTATGC	0.0408
CTTTAACC	-0.127
ACGTTGAG	-0.233
AAGCCAAA	-0.181
CATAGCCC	-0.143
ATAAACTG	0.125
TAGAATAA	-0.036
CACAGGCC	0.0336
GGGCACAC	-0.0311
CATTTCGA	-0.0564
CTGGAATC	0.104
TCATTGAA	-0.00861
GAGCGGGA	0.0183
AGCGATGG	0.123
AAATGCTG	-0.0217
CTTGGTGA	0.156
AATTAAGC	-0.148
CCTGAGTA	0.205
CTGGCCGC	-0.072
CTCAGTAA	-0.142
GAATAAGA	-0.0834
CTCTAACA	-0.098

Sequence	PBM E-score
AAGTGGCG	0.06
CATTCTGG	-0.0474
CTGAAGGA	-0.295
AGTAGTCC	0.0701
CTCTAGTA	0.00828
AATTCTTC	-0.211
ACCACGAT	0.226
GCTCGTGA	0.0309
CCTCTTTC	-0.259
GTCCACCA	-0.0881
CAGTTTGG	-0.00782
GCGTGAGC	0.205
CATTACAC	0.253
GGTTCTAA	-0.0638
CGATATGC	0.107
TGTTTTAA	-0.149
CGAATGGA	0.0534
CATACACA	0.113
AATTAAAA	-0.187
ATTCCCGA	-0.0416
ACGTTTAC	-0.223
CATCCGGA	-0.0233
ACCCACCA	0.296
ATGTCGAA	0.0643
GGGGCGGA	0.246

Sequence	PBM E-score
TACACTCA	0.143
AATGAATG	0.0955
AGACTCAA	0.214
CTAAAACA	-0.0504
CCTCGGTC	-0.116
CATTAGAG	-0.0175
CTTAGAAC	-0.196
ACTGGTTG	0.128
AGTCAGAC	0.248
GAAAATGC	-0.269
CCTATCAG	-0.0514
AGCCGATC	0.0868
CAGATACC	-0.0896
ATCAACGG	0.146
GCAATGCA	-0.106
AGAGCCTG	-0.231
ACTTTGGG	0.00749
AAGGTACG	-0.16
CAGACTGC	0.00779
GTGAATGA	0.0662
TCTAAGAA	-0.16
ACAATTAC	0.0273
AGACCGCG	0.0233
ACTCGTAG	0.16
GCCAGCGC	-0.106

Sequence	PBM E-score
AACCCCTA	-0.0392
AGAGATAG	-0.194
GCCGGGCA	-0.031
ATACTTGA	-0.141
ACCGCTAT	-0.00267
TAAGGAGA	-0.154
ATCCACCG	0.114
CCCTTGAA	-0.12
ATTTGTGC	-0.0333
CCACCTGG	-0.0837
ATGTTTCG	0.167
CGTGGTAA	-0.0457
TGGGGACA	-0.118
GAGTCTCA	0.256
AGACATTA	0.038
CAAAGGCG	-0.0789
ATTGTGAA	-0.0037
GCAAGGTA	-0.23
CAGCCCCA	0.0608
CCTATGAA	-0.117
GGATACAA	0.106
CACCGCGG	0.2
ACCTCACA	0.0753
ACCTCGAG	0.0042
CATTATTA	0.111

Sequence	PBM E-score
CCTTAAAC	-0.156
CGGACCGA	0.0284
AGCGGCTC	-0.0971
AATCTGGA	-0.0288
GGCCATAA	-0.0526
CCGGATAC	0.125
AATACATC	0.159
CGAGAGAG	-0.191
GGCGGCCC	-0.00853
AACATTCA	-0.0618
GTCGTTGA	0.0411
CCATTAGG	-0.249
CGAACGAG	-0.0695
AATACGAC	0.171
AGGATCAA	0.0354
ATAATCTG	0.0126
AAATCCCT	-0.259
ACCCCACC	0.385
CAAGATCA	0.143
CGACTCAG	0.428
ACTTACTA	-0.0804
CTTTCTAA	-0.151
ATACCCCA	0.0606
ACAAATGG	0.185
CTGTACTA	0.0704

Sequence	PBM E-score
CTACACGC	0.00513
AAGTTACA	0.0308
TAGTGTGA	0.088
AGTCGCGA	0.305
AGCTATCC	-0.309
AGGTTCAT	0.0353
CGTAACTC	-0.0198
CATACCAC	-0.0239
CCGCGTGC	-0.0148
GATTAAAA	0.0635
CACATGGC	0.138
AGAAGACC	-0.227
CCCGGGAC	0.0125
TCACAAAA	-0.0514
CTTGTGTC	0.11
CCCTGGAA	-0.11
AGCACGGA	-0.086
ACACACCC	0.198
TGGATAAA	-0.0384
ACGTATCC	-0.194
CGTTGTCC	0.0312
CCCGAGGC	0.0675
